# The full ranking holds about 33,000 sequences; the median of “E-score (-0.5 to 0.5)” is about -0.043, and the highest 2% start at about 0.37. This is one part of the list.
# Molecular target: T1, Upc2 (UniProt Q12151)
# T1 sequence: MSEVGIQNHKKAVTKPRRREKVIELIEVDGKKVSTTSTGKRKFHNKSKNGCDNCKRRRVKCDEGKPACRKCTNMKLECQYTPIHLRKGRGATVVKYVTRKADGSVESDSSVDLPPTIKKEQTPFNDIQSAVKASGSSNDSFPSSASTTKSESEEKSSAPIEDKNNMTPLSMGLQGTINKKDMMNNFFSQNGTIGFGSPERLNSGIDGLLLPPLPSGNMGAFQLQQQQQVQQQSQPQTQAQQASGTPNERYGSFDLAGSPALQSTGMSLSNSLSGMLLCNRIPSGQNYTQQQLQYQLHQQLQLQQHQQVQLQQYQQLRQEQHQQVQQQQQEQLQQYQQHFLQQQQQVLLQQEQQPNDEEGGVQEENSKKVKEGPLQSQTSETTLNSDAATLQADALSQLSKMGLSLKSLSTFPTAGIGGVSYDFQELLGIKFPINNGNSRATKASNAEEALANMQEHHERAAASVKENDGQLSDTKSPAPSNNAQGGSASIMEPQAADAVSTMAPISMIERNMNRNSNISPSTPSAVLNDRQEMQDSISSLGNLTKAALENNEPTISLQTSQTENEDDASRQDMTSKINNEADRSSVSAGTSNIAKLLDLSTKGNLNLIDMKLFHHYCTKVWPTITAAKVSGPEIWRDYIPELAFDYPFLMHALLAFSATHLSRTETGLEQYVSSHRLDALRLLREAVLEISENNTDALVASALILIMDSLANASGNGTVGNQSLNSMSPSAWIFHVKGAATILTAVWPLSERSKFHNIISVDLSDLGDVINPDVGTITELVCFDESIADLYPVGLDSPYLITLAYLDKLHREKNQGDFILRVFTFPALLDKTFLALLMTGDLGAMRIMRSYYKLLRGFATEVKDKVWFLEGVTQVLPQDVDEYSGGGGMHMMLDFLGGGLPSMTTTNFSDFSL
# Assay: PBM E-score (8-mer binding enrichment) (E-score (-0.5 to 0.5)); higher = stronger / more preferred TF binding; most listed sequences are background and not binding sites
# Conditions: protein concentration: 200 nM; construct: GST-full length
# Outline: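 Yeast transcription factors carrying a GST tag, as full-length proteins or DNA-binding domains, were produced by PURExpress in vitro transcription/translation. About 100-200 nM protein was applied to universal all-10-mer Agilent arrays, double-stranded by primer extension on fresh or once-stripped slides. Bound protein was detected with fluorescent anti-GST, and scans were normalised with masliner. The Universal PBM Analysis Suite gave each ungapped eight-base word, pooled with its reverse complement, an E-score, a modified Wilcoxon-Mann-Whitney statistic.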
row,Sequence,PBM E-score
1,CGAAGTTC,0.181
2,AACCCGTG,-0.071
3,AACTTGCC,-0.177
4,TCTAAGCA,-0.17
5,AATAGTGG,-0.132
6,AAAAATCT,0.181
7,GCAACCGA,0.0824
8,GGATGTGA,-0.198
9,CGGTCGGC,0.19
10,AGAGTTAA,-0.114
11,GAACCCGC,0.053
12,AACGAGGA,0.428
13,GGAATTCC,-0.332
14,AGAGTCGG,-0.0674
15,TCTACGCA,-0.0325
16,GAACTCGA,-0.164
17,CACCAATG,-0.0675
18,AGAAAAGA,-0.0124
19,CCCTCGTC,0.122
20,CGTCCTGA,-0.0997
21,CTCAAAAC,-0.0273
22,CGGGATGA,-0.11

row,Sequence,PBM E-score
1,CAGTTTAG,-0.0566
2,CAAACCTC,-0.242
3,GTGGCTGA,-0.244
4,GTAGGGAA,-0.00628
5,GTCTTACA,0.0332
6,ACAGCTTC,0.145
7,CAAAACCA,-0.103
8,GAATCTTA,-0.00215
9,ATAAGTGC,-0.0577
10,GATTCACA,-0.121
11,AAAACCTG,-0.00544
12,GTCTCAAA,-0.00729
13,CAATCTGC,-0.113
14,GATGAGTA,-0.0548
15,CAGCGTCC,-0.0441
16,CAAACACC,0.0462
17,ATTCCGGC,-0.189
18,AACGCTCA,0.181
19,CCACTTAG,-0.174
20,CCTGCCCC,-0.121
21,CTATTATC,0.131
22,CTCTAAGA,-0.104

row,Sequence,PBM E-score
1,GACTCAAA,0.125
2,AATCAGCA,-0.233
3,ACAACATA,0.0204
4,GACGACCA,0.071
5,AATTTGTA,0.0573
6,TAGCTCGA,-0.13
7,CCTTCTGC,-0.428
8,AATTCGCG,0.18
9,AGGATAAA,-0.0126
10,ACCAACGC,-0.14
11,AGGAAACA,-0.0301
12,CTGATGGC,-0.121
13,ATTGTTAG,-0.0129
14,GTATTCTA,0.106
15,GCCGGTAA,0.0358
16,CCGGCCTC,-0.136
17,CATCTCGA,-0.144
18,ATAGTTCC,-0.179
19,AACTAACT,-0.0449
20,GCAGAACC,-0.0127
21,CAAATTCG,0.0907
22,TCAAAAGA,-0.0424

row,Sequence,PBM E-score
1,ACCTGCGA,-0.0131
2,CTGCTCAC,0.00302
3,GAACTGTA,0.0776
4,CTGTCAAC,-0.0116
5,GGCATCAA,-0.121
6,CAAATAGG,-0.00549
7,CCATCACG,-0.0739
8,ACACGACC,0.154
9,GTAGTGCA,-0.0432
10,AGACTTGG,-0.0984
11,CAGTGATA,0.0531
12,AATTTAAG,0.0619
13,AATTCCAG,-0.188
14,CATCCTCA,-0.0817
15,CCATTGGG,-0.0393
16,GGCAGTAC,-0.0646
17,ATTTCAAG,-0.0738
18,AAGAGAGA,-0.115
19,GCCGGTAC,0.165
20,GTATACAA,0.234

# Reference: the supplement of paper PMC3334620
